# Laboratory results: the supplement of paper PMC8728848
# Some of the results follow.
# Experiments:
# Test in all cases: glycan array binding signal (z-score within array); higher = stronger binding
# Conditions in all cases: glycan notation: IUPAC condensed, linker removed
# Fuc(a1-2)Gal = target: Fuc(a1-2)Gal
# In short: (§1)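 Glycan array data came from 3228 arrays in the Consortium for Functional Glycomics database, and only arrays with an available protein sequence were kept. Glycan names were put into IUPAC-condensed notation, and columns mapping to the same glycan were averaged. The binding signal is a within-array Z-score, averaged across arrays of one protein sequence run at different concentrations or buffers and across linkers. A negative Z-score can be read as non-binding.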
# Fuc(a1-2)Gal(b1-3)GalNAc = target: Fuc(a1-2)Gal(b1-3)GalNAc
# In short: as §1
# [1] = target: Fuc(a1-2)Gal(b1-3)GalNAc(a1-3)[Fuc(a1-2)]Gal(b1-4)Glc
# In short: as §1
# [2] = target: Fuc(a1-2)Gal(b1-3)GalNAc(a1-3)[Fuc(a1-2)]Gal(b1-4)GlcNAc
# In short: as §1
# [3] = target: Fuc(a1-2)Gal(b1-3)GalNAc(b1-3)Gal
# In short: as §1
# [4] = target: Fuc(a1-2)Gal(b1-3)GalNAc(b1-3)Gal(a1-4)Gal(b1-4)Glc
# In short: as §1
# [5] = target: Fuc(a1-2)Gal(b1-3)GalNAc(b1-4)[Neu5Ac(a2-3)]Gal(b1-4)Glc
# In short: as §1
# Fuc(a1-2)Gal(b1-3)GlcNAc = target: Fuc(a1-2)Gal(b1-3)GlcNAc
# In short: as §1
# [6] = target: Fuc(a1-2)Gal(b1-3)GlcNAc(b1-2)Man(a1-3)[Fuc(a1-2)Gal(b1-3)GlcNAc(b1-2)Man(a1-6)]Man(b1-4)GlcNAc(b1-4)GlcNAc
# In short: as §1
# [7] = target: Fuc(a1-2)Gal(b1-3)GlcNAc(b1-2)Man(a1-3)[Fuc(a1-2)Gal(b1-3)GlcNAc(b1-2)Man(a1-6)]Man(b1-4)GlcNAc(b1-4)[Fuc(a1-6)]GlcNAc
# In short: as §1
# [8] = target: Fuc(a1-2)Gal(b1-3)GlcNAc(b1-3)Gal(b1-4)Glc
# In short: as §1
# [9] = target: Fuc(a1-2)Gal(b1-3)GlcNAc(b1-3)GalNAc
# In short: as §1
# [10] = target: Fuc(a1-2)Gal(b1-3)GlcNAc(b1-3)[Fuc(a1-2)Gal(b1-3)GlcNAc(b1-6)]GalNAc
# In short: as §1
# [11] = target: Fuc(a1-2)Gal(b1-3)GlcNAc(b1-3)[Gal(b1-4)GlcNAc(b1-6)]Gal(b1-4)Glc
# In short: as §1
# [12] = target: Fuc(a1-2)Gal(b1-3)GlcNAc(b1-3)[Neu5Ac(a2-6)Gal(b1-4)GlcNAc(b1-6)]Gal(b1-4)Glc
# In short: as §1
# [13] = target: Fuc(a1-2)Gal(b1-3)GlcNAc6S
# In short: as §1
# [14] = target: Fuc(a1-2)Gal(b1-3)[Fuc(a1-4)]GlcNAc
# In short: as §1
# [15] = target: Fuc(a1-2)Gal(b1-3)[Fuc(a1-4)]GlcNAc(b1-2)Man(a1-3)[Fuc(a1-2)Gal(b1-3)[Fuc(a1-4)]GlcNAc(b1-2)Man(a1-3)]Man(b1-4)GlcNAc(b1-4)GlcNAc
# In short: as §1
# [16] = target: Fuc(a1-2)Gal(b1-3)[Fuc(a1-4)]GlcNAc(b1-2)Man(a1-3)[Fuc(a1-2)Gal(b1-3)[Fuc(a1-4)]GlcNAc(b1-2)Man(a1-6)]Man(b1-4)GlcNAc(b1-4)[Fuc(a1-6)]GlcNAc(b1-4)[Fuc(a1-6)]GlcNAc
# In short: as §1
# [17] = target: Fuc(a1-2)Gal(b1-3)[Fuc(a1-4)]GlcNAc(b1-3)[Fuc(a1-3)[Gal(b1-4)]GlcNAc(b1-6)]Gal(b1-4)Glc
# In short: as §1
# [18] = target: Fuc(a1-2)Gal(b1-3)[Fuc(a1-4)]GlcNAc(b1-3)[Gal(b1-4)GlcNAc(b1-6)]Gal(b1-4)Glc
# In short: as §1
# [19] = target: Fuc(a1-2)Gal(b1-4)Fuc(a1-3)]GlcNAc(b1-2)Man(a1-3)[Fuc(a1-2)Gal(b1-4)[Fuc(a1-3)]GlcNAc(b1-2)Man(a1-6)]Man(b1-4)GlcNAc(b1-4)GlcNAc
# In short: as §1
# Fuc(a1-2)Gal(b1-4)Glc = target: Fuc(a1-2)Gal(b1-4)Glc
# In short: as §1
# Fuc(a1-2)Gal(b1-4)Glc6S = target: Fuc(a1-2)Gal(b1-4)Glc6S
# In short: as §1
# Fuc(a1-2)Gal(b1-4)GlcNAc = target: Fuc(a1-2)Gal(b1-4)GlcNAc
# In short: as §1
# [20] = target: Fuc(a1-2)Gal(b1-4)GlcNAc(b1-2)Man
# In short: as §1
# [21] = target: Fuc(a1-2)Gal(b1-4)GlcNAc(b1-2)Man(a1-3)[Fuc(a1-2)Gal(b1-4)GlcNAc(b1-2)Man(a1-6)]Man(b1-4)GlcNAc(b1-4)GlcNAc
# In short: as §1
# [22] = target: Fuc(a1-2)Gal(b1-4)GlcNAc(b1-2)Man(a1-3)[Fuc(a1-2)Gal(b1-4)GlcNAc(b1-2)Man(a1-6)]Man(b1-4)GlcNAc(b1-4)[Fuc(a1-6)]GlcNAc
# In short: as §1
# [23] = target: Fuc(a1-2)Gal(b1-4)GlcNAc(b1-2)[Fuc(a1-2)Gal(b1-4)GlcNAc(b1-4)]Man(a1-3)[Fuc(a1-2)Gal(b1-4)GlcNAc(b1-2)Man(a1-6)]Man(b1-4)GlcNAc(b1-4)GlcNAc
# In short: as §1
# [24] = target: Fuc(a1-2)Gal(b1-4)GlcNAc(b1-3)Gal(b1-4)GlcNAc
# In short: as §1
binder,measurement,setting,value
HHA (Hippeastrum hybrid) (protein) MQQDCNLVLYDVDKPIWASNTGGLARDCHLNMQSDGNLVVYAPRNQVIWASNTQGENGNYVCILQKDRNVVIYGTARWATGTNIHGAGIVGVPGSAPQNTTAEMIKLVRKYLITK,glycan array binding signal (z-score),Fuc(a1-2)Gal,-0.215
same,glycan array binding signal (z-score),Fuc(a1-2)Gal(b1-3)GalNAc,-0.132
same,glycan array binding signal (z-score),[1],-0.202
same,glycan array binding signal (z-score),[2],-0.205
same,glycan array binding signal (z-score),[3],-0.148
same,glycan array binding signal (z-score),[4],-0.193
same,glycan array binding signal (z-score),[5],-0.203
same,glycan array binding signal (z-score),Fuc(a1-2)Gal(b1-3)GlcNAc,-0.216
same,glycan array binding signal (z-score),[6],0.241
same,glycan array binding signal (z-score),[7],0.42
same,glycan array binding signal (z-score),[8],-0.219
same,glycan array binding signal (z-score),[9],-0.145
same,glycan array binding signal (z-score),[10],-0.191
same,glycan array binding signal (z-score),[11],-0.2
same,glycan array binding signal (z-score),[12],-0.213
same,glycan array binding signal (z-score),[13],-0.18
same,glycan array binding signal (z-score),[14],-0.211
same,glycan array binding signal (z-score),[15],-0.133
same,glycan array binding signal (z-score),[16],0.036
same,glycan array binding signal (z-score),[17],-0.207
same,glycan array binding signal (z-score),[18],-0.203
same,glycan array binding signal (z-score),[19],-0.155
same,glycan array binding signal (z-score),Fuc(a1-2)Gal(b1-4)Glc,-0.224
same,glycan array binding signal (z-score),Fuc(a1-2)Gal(b1-4)Glc6S,-0.199
same,glycan array binding signal (z-score),Fuc(a1-2)Gal(b1-4)GlcNAc,-0.214
same,glycan array binding signal (z-score),[20],-0.204
same,glycan array binding signal (z-score),[21],0.036
same,glycan array binding signal (z-score),[22],0.294
same,glycan array binding signal (z-score),[23],0.026
same,glycan array binding signal (z-score),[24],-0.191
